For 120 sequences, switch fluorescence ratio results are on record in the supplement of paper PMC10126150.

The data set concerns ATP. The experiment in a line: switch fluorescence ratio, 500 uM ATP over buffer (Cy3 cluster intensity, sum of 5 cycles each) (fold (ratio)); higher = stronger signal-on switching upon ATP binding; sequences stand for … in TCGTCGGCAGCGTCAGATGTGTATAAGAGACAGTTTTTTTTTTTTTTTTTTTTTTTTT…TC. Particulars: aptamer strand: ATP DNA aptamer (quencher-CACCTGGGGGAGTATTGCGGAGGAAGG + anchor), 100 nM annealed; ATP concentration: 500 uM; one replicate. Summed up: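 Imaging in selection buffer was followed by imaging after 15 min with 500 uM ATP at 22 °C, for Cy3-labelled switching-strand clusters annealed to 100 nM quencher-labelled ATP aptamer on a modified Illumina MiSeq flow-cell. Five of these buffer/ATP cycles ran, separated by NaOH stripping and re-annealing. The fluorescence ratio per cluster is summed target-cycle over summed buffer-cycle Cy3 intensity, averaged per switch-domain sequence; clusters outside 100-1000 RFU were removed.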

Values marked as one replicate rest on one cluster of the flow cell; about a third of the high ones do not repeat.
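Also: ATP exposure 15 min at 22 °C before imaging.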

As for CGCGGTTGTA, the switch fluorescence ratio turned out to be 1.06.

On to TGTGGGCATG, for which the switch fluorescence ratio is 0.94. In the case of CGATCTGGTA, the switch fluorescence ratio worked out at 0.985. As for TTCACTGATT, the switch fluorescence ratio stood at 1.02. In the case of CAACTCGGCG, the switch fluorescence ratio came to 0.987. With TGCTTTGAG, the switch fluorescence ratio is 1.01. For the sequence AAATGAACGC, the switch fluorescence ratio stood at 1.07. In the case of CGGTATGTCA, the switch fluorescence ratio was found to be 0.913.

TCGTTCCCGG: the switch fluorescence ratio was determined as 1.2. As for CTAGGGCGTA, the switch fluorescence ratio turned out to be 1. Then CTCTAGACTT, with 1.01; and TGTTCCATAG, with 1.05; and ATTGTGAGAT, with 0.979. Take GCGGGTCTAG: the switch fluorescence ratio was found to be 1. Consider TGAAGACTAT, for which the switch fluorescence ratio was determined as 0.991. Consider TAAGGGGA, for which the switch fluorescence ratio turned out to be 1.32. As to GTTACATATC, the switch fluorescence ratio was 1.05. ACCGCGTTGG: the switch fluorescence ratio was 1.03. CGCTTGGGGG: the switch fluorescence ratio was determined as 1.01. For CCTATAGTTG, the switch fluorescence ratio amounted to 1.03. For AGCGCCGGCC, the switch fluorescence ratio was 0.978.

Take AGCAGGTGAC: the switch fluorescence ratio was determined as 1.59. As for CTTTGAACAT, the switch fluorescence ratio is 1.01. Consider TTCGGCAAAC, for which the switch fluorescence ratio is 3.6. Then GCACCCCCAG, with 5.24; and TCTAGCGGGA, with 0.967; and TAAAGTGAAA, with 1.07. For CGGCCAGCGC, the switch fluorescence ratio worked out at 1.04. As to TACTGGAATT, the switch fluorescence ratio was 1.03. Then CTTGAGCCCC, with 1.44; and CTTGCGTTGG, with 0.985; and TATTCAGTTT, with 1. With AAAAGCGCGA, the switch fluorescence ratio was determined as 1.08.

Regarding ACTTGGCTTC, the switch fluorescence ratio was 1.03.

On to CGCGCTCATC, for which the switch fluorescence ratio is 1.19. Then TGTGTTGTGT, with 0.984. Turning to GAGGGACAGA, the switch fluorescence ratio was 1.01.

Take AAGCACAAAA: the switch fluorescence ratio was 1.48. For TAATGCGTAG, the switch fluorescence ratio was 0.948. With TCTCAATAGG, the switch fluorescence ratio amounted to 1.02. On to GCTCATTGAT, for which the switch fluorescence ratio stood at 1.01. Take ATGTCCGATC: the switch fluorescence ratio is 1.03. TCTAATATCT: the switch fluorescence ratio was determined as 1.02. Consider TTCCCTAAC, for which the switch fluorescence ratio is 1.04. Then ATCAGGTTCG, with 1.01; and AAAGTACAGG, with 1.22; and TCTTTGAGGA, with 0.976.

Regarding GCAGTCCATT, the switch fluorescence ratio turned out to be 0.984.

As for GACGTGGTGA, the switch fluorescence ratio is 1.01. In the case of AACCGAAAAC it was 1.67; in that of TCCAGGCACG, 1.03; in that of CAAATCCAAG, 0.99.

On to CGACGTGCAA, for which the switch fluorescence ratio was 3.19.

In the case of TCTCACGACT, the switch fluorescence ratio was 1.03. In the case of CCTAGAATGA, the switch fluorescence ratio amounted to 0.972.

As for CGCAGGGTTT, the switch fluorescence ratio was 1.07.

Turning to AGATCAGTTA, the switch fluorescence ratio amounted to 1.01.

Consider ATAGTCTGGG, for which the switch fluorescence ratio stood at 0.985.

Consider ATAGAAACCT, for which the switch fluorescence ratio was 3.52. For the sequence TGAGTGCCAG, the switch fluorescence ratio worked out at 1.01. With TCTCATGGTA, the switch fluorescence ratio stood at 1.04. For the sequence CTCAGTGGGT, the switch fluorescence ratio amounted to 0.993. On to TTCTAGAGCC, for which the switch fluorescence ratio was 1.1. Turning to GACGTTGACT, the switch fluorescence ratio was found to be 1.06.

On to AAATCGGTCG, for which the switch fluorescence ratio was found to be 0.948. In the case of AACGGGATCG, the switch fluorescence ratio stood at 1.03. Turning to GAGAGAGCGT, the switch fluorescence ratio amounted to 0.991. With GGTCCATTAC, the switch fluorescence ratio was determined as 1.1. TCTAGGGGGA: the switch fluorescence ratio came out at 1.05. Take ACTCCGAGTA: the switch fluorescence ratio stood at 1.99.

On to CATGAGACGA, for which the switch fluorescence ratio came to 0.965. For TGGCAACTGT, the switch fluorescence ratio amounted to 1.01. In the case of CCGCTTTAGC, the switch fluorescence ratio stood at 1.28.

For GGACAGCAGA, the switch fluorescence ratio is 1.01. Take GTCCACGGGG: the switch fluorescence ratio was 1.05. As for ATTAGGTGG, the switch fluorescence ratio was found to be 1.08. In the case of AGGTGGTTTG, the switch fluorescence ratio was 1.06. For GTGGGTGGCG, the switch fluorescence ratio was determined as 1.09. Take TTGGTTCGAT: the switch fluorescence ratio is 1.02. As for TTCTTCAGTA, the switch fluorescence ratio was 0.995. As for TGTTGTGCGG, the switch fluorescence ratio was found to be 1. In the case of TGATGAGGCG it was 1.03; in that of AAGAGCATTC, 1.08; in that of CTTGGATGTG, 1.04. ATAGATATTG: the switch fluorescence ratio stood at 1.01. Then GGATCCGACG, with 1.08. In the case of CCAGGTGGGG, the switch fluorescence ratio is 1.93.

Regarding TTCGCTAGG, the switch fluorescence ratio came to 1.8.

Consider AGAGGTTGTG, for which the switch fluorescence ratio came out at 1.

As for GAGTTAATA, the switch fluorescence ratio stood at 0.99.

On to AGGTTGCAC, for which the switch fluorescence ratio amounted to 1.04.

TCCATCTCAT: the switch fluorescence ratio is 1.02.

TAAGCCTATC: the switch fluorescence ratio came to 1.11.

As to GATGCAGGAG, the switch fluorescence ratio came out at 1.07. Regarding TGTTTGGCCA, the switch fluorescence ratio was 1.01. Take TGTAAGTAGT: the switch fluorescence ratio was found to be 1.02.

As to TAGTCCAACT, the switch fluorescence ratio was 1.03. For the sequence CTTAGCTTGT, the switch fluorescence ratio worked out at 0.983. TAGAAGTGCC: the switch fluorescence ratio amounted to 0.999.

For the sequence CAAAGTGGAT, the switch fluorescence ratio is 1.03.

As for TAAGCCGCCG, the switch fluorescence ratio was determined as 1.06. Then ACGTAGTTTT, with 1.01.

CCTACATATC: the switch fluorescence ratio came out at 1.56. Consider GAGTGTTGTT, for which the switch fluorescence ratio amounted to 0.976. Turning to GTTTGTACAT, the switch fluorescence ratio is 1.02. For GGGGCATTTT, the switch fluorescence ratio stood at 1.04.

In the case of GTAGGAATGC, the switch fluorescence ratio was 1.15. With TTCCCCTCGG, the switch fluorescence ratio was determined as 1.17. Take CGCGTATGGG: the switch fluorescence ratio worked out at 1.04.

In the case of TTGGCCGACG, the switch fluorescence ratio came to 1.05. As to GATCCCCGCC, the switch fluorescence ratio was determined as 1.54. Regarding TAGCAGTTTC, the switch fluorescence ratio was 1.08.

Turning to CGCTTAGAGG, the switch fluorescence ratio was 1.04. As to TGGAAAATTG, the switch fluorescence ratio is 0.983. Then CATGAACCCT, with 1.11; and GATGTACGCT, with 1.07. In the case of TACATCCACC, the switch fluorescence ratio was 1.19. Take GATATCTG: the switch fluorescence ratio is 0.897. As for CGTCAATCGG, the switch fluorescence ratio is 1.13. On to TTATTCTAGT, for which the switch fluorescence ratio stood at 1.
